Measurements reported in PubChem BioAssay AID493208 (National Center for Advancing Translational Sciences (NCATS), 2011).
Out of some 44,000 compounds screened, about 340 (0.77%) were called active. Roughly 5% stayed inconclusive and do not appear here. Calls follow the shape of the dose curve; as a rule, active = well fitted inhibition curve with a large enough effect; inconclusive = small, poorly fitted or top-dose-only effect; inactive = flat fitted curve, though single readings scatter. The list shows a part of the results.

Assay: Acumen qHTS Assay for Inhibitors of the mTORC1 Signaling Pathway in MEF (Tsc2-/-, p53-/-) Cells: Sytravon; also: nearly all actives have a fitted effect of over 50% in size;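 as to activity change, negative = inhibition: plate controls were DMSO for no effect and rapamycin for full effect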
Settings: phospho-rpS6 immunofluorescence/PI, 24 h; series mostly up to 38.3 µM; activity change, negative = inhibition: at the top concentration
In short: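 Tsc2-/-, p53-/- MEFs (empty-vector stable line) in DMEM + 10% FBS were treated with compounds 24 h at 37 degree Celsius, fixed, and immunostained for phospho-rpS6 (Alexa-488) with propidium iodide counterstain. Laser-scanning cytometry gave % positive cells, normalized against 7.5 nM rapamycin and DMSO.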
Potency is read from the fitted curve at half-maximal effect.

Activity change, negative = inhibition, inactive:
COc1ccc(C)cc1Nc1ncnc2c1c(-c1ccccc1)cn2-c1ccc(C)cc1 9.57%
CCN(CCCNC(=O)CN1N=C(c2ccccc2)CCC1=O)c1ccccc1 9.54%
COc1ccc(S(=O)(=O)N2CCC(C(=O)Nc3cc(C(F)(F)F)ccc3Cl)CC2)cc1 1.78%
COc1ccc(OC)c2sc(N3CCN(C(=O)C4COc5ccccc5O4)CC3)nc12 (centres undefined) -2.95%
Cc1ccc(S(=O)(=O)C(CNC(=O)COc2ccccc2)c2ccco2)cc1 (centres undefined) -6.15%
CCCN(CCC)C(=O)Cn1c(=O)n(CCCCCC(=O)NCc2ccccc2Cl)c(=O)c2sccc21 -0.9%
CCCOc1ccc(-c2cc(C(F)(F)F)c(C#N)c(SCCC(=O)O)n2)cc1 1.76%
CC(C)CCNC(=O)C(Cc1ccccc1)NS(=O)(=O)c1ccc2c(c1)c(=O)n(C)c(=O)n2C (centres undefined) -0.183%
CS(=O)(=O)N1CCc2cc(C(=O)Nc3ccc(C(F)(F)F)cc3)ccc21 -23.7%
Cc1cc(C)n(-c2nc3cc(Cl)ccc3nc2N2CCN(c3ccccc3F)CC2)n1 -7.59%
Cc1ccc(CNC(=O)CSc2nc3n[nH]c(C)c3c(=N)n2-c2ccccc2Cl)cc1 -1.71%
O=C(Nc1ccccc1C(=O)OCc1cc(=O)n2nc(C3CC3)sc2n1)c1cccc(F)c1 4.72%
O=C(Nc1ccc(F)c(Cl)c1)N1CCC(CN2CCOCC2)CC1 0.931%
Cc1nc2sccn2c(=O)c1S(=O)(=O)Nc1cc(C(F)(F)F)ccc1Cl -0.415%
CCOCCCn1c(SCC(=O)Nc2ccccc2Cl)nc2c(oc3ccccc32)c1=O -11.6%
Cc1ccccc1OCCCCn1nnc2sc3c(c2c1=O)CCC(C)C3 (centres undefined) 0.674%
Cc1ccc(CCNC(=O)c2ccc3c(c2)nc2n3CCOC2)cc1 -4.53%
CN1C(=O)C2(SCC(=O)N2c2ccc(Cl)cc2)c2ccccc21 (centres undefined) -7.01%
COCCNC(=O)c1ccc(-c2nc(CS(=O)(=O)c3ccccc3)c(C)o2)cc1 -2.99%
CCOc1ccc(NC(=O)CSc2nc3ccsc3c(=O)n2CCCCCC(=O)O)cc1 -0.878%
CCOc1ccc(NCc2nc3ccccc3n2CCOc2ccc(C)cc2)cc1 -1.46%
CC(=O)N1CCCc2cc(S(=O)(=O)N3CCCC(C(=O)NCc4ccc(C)cc4)C3)ccc21 (centres undefined) -7.33%
CCc1nn2c(=O)c(S(=O)(=O)Nc3ccc(C(C)C)cc3)c(C)nc2s1 -9.38%
CCc1ccc(-n2nc3ccc(NC(=O)COc4ccc(OC)cc4)cc3n2)cc1 -3.19%
O=C(CSc1nc2c(c(=O)[nH]1)CN(Cc1ccc3c(c1)OCO3)CC2)Nc1ccccc1Cl -2.04%
CCOC(=O)c1cc(S(=O)(=O)N2CCN(c3cccc(C)c3C)CC2)[nH]n1 -1.64%
CNC(=O)c1c(NC(=O)c2nc(SCc3ccc(C)cc3)ncc2Cl)sc2c1CCCC2 1.19%
COc1ccc(-c2cc(C(C)=O)c(C)n2CCC(=O)NCc2ccc(C)cc2)cc1 -2.35%
COc1cccc(CNC(=O)C2CCN(C(=O)c3cnn(-c4ccccc4)c3-n3cccc3)CC2)c1 5.21%
Cc1ccc(NC(=O)Nc2cn(CC(C)C)c(=O)c3ccccc23)cc1N(C)C 5.69%
CCN(c1ccccc1C)S(=O)(=O)c1nnc(NC(=O)c2ccco2)s1 7.87%
COc1ccc(Nc2nnc(-c3ccc(C)c(S(=O)(=O)NCCO)c3)c3ccccc23)cc1C(N)=O 9.2%
Cc1ccc(-n2ncc(C(=O)NC3CCCCC3)c2C2CCN(C(=O)OC(C)(C)C)CC2)cc1 -9.09%
COc1ccccc1OCC(=O)N1CCC(c2nc3ccccc3o2)CC1 -12.5%
COc1ccc(CNc2nc3c(-c4cccc(F)c4)nnn3c3ccccc23)cc1 -12.1%
COc1ccc(N(C)C(=O)c2cc3c(s2)-c2c(C)cccc2OC3)c(OC)c1 -6.15%
COc1ccc(-c2c(C)nn3c(C(F)(F)F)cc(-c4ccccc4)nc23)cc1OC 3.56%
CN(CC(=O)NCc1ccc(F)cc1)S(=O)(=O)c1ccc2[nH]c3c(c2c1)CCCC3 -2.36%
Cc1cccn2c(=O)cc(CSc3nnc(NC(=O)COc4ccccc4)s3)nc12 9.59%
COC(=O)c1cc2sccc2n1CC(=O)Nc1ccc(OC)c(OC)c1 -2.09%
Cc1c(Cl)cccc1NC(c1ccc(F)cc1)c1nnc(-c2ccccc2)o1 (centres undefined) -3.5%
COc1ccc(C2=C(N3CCN(c4cc(C)ccc4C)CC3)c3ccccc3C2=O)cc1 -0.4%
CCc1ccc(-n2c(=O)c3sc4ccccc4c3n(CC(=O)NCc3ccccc3)c2=O)cc1 -3.76%
O=C(c1ccc2c(c1)N(Cc1cccc(F)c1)C(=O)c1ccccc1S2)N1CCC2(CC1)OCCO2 0.877%
O=C(Cn1cccc1C(=O)c1ccccc1)NCc1ccccc1Cl -9.09%
O=C(Nc1cccnc1)c1cc(-c2ccc(Cl)cc2)on1 -27.4%
Cc1ccc(-n2c(=O)c3c4c(sc3n(CC(=O)Nc3cccc(Cl)c3)c2=O)CCCCC4)cc1C 3.8%
Cc1cccc(C)c1OCC(=O)NC(Cc1c[nH]c2ccccc12)C(=O)O (centres undefined) -2.29%
Cc1ccc(S(=O)(=O)NCc2nc3nc(C)cc(C)n3n2)cc1 -7.64%
Cc1ccc(C)c(CN2CCCN(CC(=O)Nc3ccc(C)c(C)c3)S2(=O)=O)c1 -8.79%
COc1cc(Cl)c(C)cc1NC(=O)CCc1nc2cccnc2n1Cc1cccs1 -12.6%
Cn1cc(C(=O)NCc2ccccc2Cl)c(=O)c2cc(S(=O)(=O)N3CCCCCC3)ccc21 -3.9%
CCOC(=O)c1c(S(=O)(=O)N2CCC(C(=O)N3CCN(c4ccccc4F)CC3)CC2)c(C)n(C)c1C -4.86%
CC(C)N(Cc1ccccc1)C(=O)Cn1ncc2c3ccccc3n(Cc3ccccc3)c2c1=O -12%
CCOC(=O)c1ccc(NC(=O)CCCn2c(=O)c3cccn3c3cccnc32)cc1 -2.45%
Cc1cccc(Cn2c(SCc3ccc(C(=O)NC4CCCC4)cc3)nc3cccnc32)c1 -2.52%
Cc1nn(-c2ccc(Cl)cc2)c2nc(-c3cccnc3)cc(C(F)(F)F)c12 0.826%
COc1ccc(NC(=O)C2CCN(S(=O)(=O)c3c(C)noc3/C=C/c3cccs3)CC2)cc1 7.22%
COc1ccc(OC)c(CNC(=O)c2ccc(NC(=O)c3nsc4ccccc34)cc2)c1 1.41%
Cc1ccccc1OCCCCn1c(CCNC(=O)C(C)(C)C)nc2ccccc21 -6.1%
COc1ccc(OC)c(S(=O)(=O)NCC(c2ccco2)S(=O)(=O)c2ccccc2)c1 (centres undefined) -3.22%
CCn1cc(S(=O)(=O)c2cccc(Cl)c2)c(=O)c2cc(F)c(N3CCN(C)CC3)cc21 -12.7%
CN(Cc1ccccc1)C(=O)CCS(=O)(=O)c1ccc2c(c1)oc(=O)n2C -2.84%
COC(=O)c1ccccc1NC(=O)c1ccc(-c2nc(CSc3ccc(C)cc3)c(C)o2)cc1 0.0211%
O=S(=O)(Nc1ccc(C(F)(F)F)cc1)c1ccc2c(c1)OCCO2 4.15%
COc1ccccc1N1CCN(Cc2nnc(-c3ccccc3C)o2)CC1 2.41%
COCCCn1c(=O)c2sccc2n2c(CCCC(=O)Nc3cccc(C(F)(F)F)c3)nnc12 3.49%
CCOC(=O)c1cccc(NC(=O)c2ccc3nc(CCc4ccccc4)oc3c2)c1 0.666%
O=C(c1ccc2c(c1)N(Cc1ccc(Cl)cc1)C(=O)c1ccccc1S2=O)N1CCC(Cc2ccccc2)CC1 (centres undefined) -9.38%
O=C(NCCCc1nc2ccccc2n1Cc1cccc(Cl)c1)C1CCCCC1 -6.79%
Cc1ccccc1OCC(=O)Nc1ccc2nc(SCC(N)=O)sc2c1 -2.74%
CCCCOC(=O)c1ccc(NC(=O)c2csnn2)cc1 -0.594%
CC1=C(C(=O)Nc2ccccc2)C(c2ccc[nH]2)n2ncnc2N1 (centres undefined) 6.75%
COC(=O)c1ccc(NC(=O)C(=O)NCC(c2cccnc2)N2CCc3ccccc32)cc1 (centres undefined) 7.01%
Cc1c(NC(=O)c2sc3ccccc3c2Cl)cccc1-c1nc2ccccc2o1 -11.6%
Cc1c(Cl)cccc1NC(=O)Cn1nnc(-c2nc(-c3ccccc3)no2)c1N -9.88%
CCCOc1ccc(C(=O)Nc2ccc3oc(-c4ccc(N(C)C)cc4)nc3c2)cc1 7.67%
Cc1cccc(C)c1NC(=O)CSc1nc2ccccc2c2nc(CCc3c(C)n[nH]c3C)nn12 -5.87%
CCn1cc(C(=O)NCCc2ccc(C)cc2)c(=O)c2cc(S(=O)(=O)N3CCC(C)CC3)ccc21 -0.695%
CCCOc1ccc(OC(=O)c2cn(-c3ccc(OC)cc3)c(=O)c3ccccc23)cc1 -8.18%
CCOc1ccccc1NC(=O)C1=C(C)Nc2ncnn2C1c1cccs1 (centres undefined) -22.3%
Cc1cccc(N2CCN(C(=O)c3ccc4c(Cl)c5c(nc4c3)CCCC5)CC2)c1C 1.39%
COc1cccc(-c2nn3c(=O)cc(CN4CCN(C(=O)/C=C/c5ccccc5)CC4)nc3s2)c1 7.75%
COc1cc(NC(=O)c2nc3ccccc3n(C)c2=O)cc(OC)c1OC -3.63%
Cc1ccc(CCNC(=O)CCS(=O)(=O)c2cc3c(cc2Cl)NC(=O)CO3)cc1 7.25%
CC(C)NC(=O)CN1C(=O)c2cccnc2Sc2ccccc21 1.54%
CC(=O)c1cccc(NC(=O)c2cc(C)nc3c2c(C)nn3-c2cccc(Cl)c2C)c1 -0.568%
O=C(OCc1cc(=O)n2nc(C3CC3)sc2n1)c1ccccc1Cl -9.67%
Cc1ccc(-c2nc(-c3cc4cccc(OCc5ccccc5F)c4oc3=O)no2)cc1 0.486%
Cc1ccc(NC(=O)Cn2c(=O)n(Cc3ccc(C(=O)NCc4ccc5c(c4)OCO5)cc3)c(=O)c3ccccc32)cc1 -9.33%
COc1ccc(NC(=O)c2csnn2)cc1 -18.5%
CCOc1ccc(CNC(=O)CCS(=O)(=O)c2ccc3c(c2)oc(=O)n3C)cc1 5.53%
COc1cc(NC(=O)CCS(=O)(=O)c2ccc3c(c2)n(C)c(=O)c(=O)n3C)cc(OC)c1 2.02%

Potency, active:
CCCS(=O)(=O)c1ncc(Cl)c(C(=O)Nc2c(C(=O)Nc3ccccc3)oc3ccccc23)n1 2.07 µM
